The campaign covered roughly 390,000 compounds. About 2,200 (0.56%) were called active. This list was built around the results that the source calls inconclusive (neither active nor inactive); the mix of calls is not that of the screen. Calls come from the whole dose curve; as a rule, active = well fitted inhibition curve with a large enough effect; inconclusive = small, poorly fitted or top-dose-only effect; inactive = no such curve, though single readings can be large or run the other way. A potency beside an inconclusive call is a rough fit, not a confirmed value.
What follows are molecules tested against Chromobox protein homolog 1 (Homo sapiens) (UniProt P83916) (assay: HTS for Inhibitors of HP1-beta Chromodomain Interactions with Methylated Histone Tails). Details: AlphaScreen HP1-beta / biotin-H3K9me3 peptide binding; series mostly up to 114 µM; activity change, negative = inhibition: at the top concentration.
UniProt P83916, sequence (P83916 whole entry, looked up): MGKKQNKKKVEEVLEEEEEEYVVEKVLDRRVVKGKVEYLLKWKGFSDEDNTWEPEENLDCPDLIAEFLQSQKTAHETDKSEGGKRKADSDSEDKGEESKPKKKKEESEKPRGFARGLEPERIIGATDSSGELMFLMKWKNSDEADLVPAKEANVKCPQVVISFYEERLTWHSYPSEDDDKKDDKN
Method in brief: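 HP1-beta protein (50 nM final) preincubated 30 min at room temperature with biotinylated H3(1-18)K9me3 peptide (50 nM) in PBS pH 7.4, 0.01% Tween-20, then compound added for 30 min. AlphaScreen streptavidin donor/nickel chelate acceptor beads (10 ug/mL final), 30 min dark, luminescence read.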
With Cc1ccc(CNCC(=O)Nc2cccc(S(=O)(=O)NC3=NCCCCC3)c2)cc1 the Potency was inconclusive: 25.1 µM [inhibitor, partial curve].
With CCCCCSc1nnc2c(n1)OC(c1cccn1C)N(C(C)=O)c1ccccc1-2 (centres undefined) the Potency was inconclusive: 50.1 µM [inhibitor, partial curve].
In the case of C=C[C@@H]1c2cc(C)ccc2N(S(=O)(=O)c2ccc(C)cc2)[C@H](c2ccc(OC(C)=O)cc2)C1(C#N)C#N, the “activity change, negative = inhibition” value is reported as inactive: 17.9%.
For CC(C)c1cccc(OCCN2CCCC2)c1, the Potency was inconclusive: 44.7 µM [inhibitor, partial curve, poor fit].
CCc1cnc2c(c1SC(C(C)=O)C(=O)N(C)C)c(=O)n(C)c(=O)n2C (centres undefined) was tested, and the Potency was inconclusive: 89.1 µM [inhibitor, single point].
O=[N+]([O-])c1ccc(-c2cnc(SCc3ccccc3Cl)[nH]2)cc1 was tested, and the Potency was inconclusive: 22.4 µM [inhibitor, full curve, poor fit].
In the case of O=C(NCc1ccco1)c1cc2cc(Br)ccc2o1, the Potency is reported as inconclusive: 39.8 µM [inhibitor, partial curve].
With O=C(Cc1cccc(NC(=O)C2CCCN(C(=O)C3CCCCC3)C2)c1)Nc1ccc(C(=O)N2CCCCC2)cc1 (centres undefined) the “activity change, negative = inhibition” value was inactive: 51%.
Cn1nc(C(C)(C)C)c([N+](=O)[O-])c1C(=O)N1CCOCC1 was tested, and the “activity change, negative = inhibition” value was inactive: 13.6%.
CCOc1ccc(C2C(C(N)=O)=C(C)Nc3nc(SCc4ccccc4F)nn32)cc1 (centres undefined) was tested, and the “activity change, negative = inhibition” value was inactive: 30.8%.
For COc1ccccc1C(=O)Nc1ccc(C(=O)OCc2cc(=O)n3c4c(sc3n2)CCCC4)cc1, the “activity change, negative = inhibition” value was inactive: 32.8%.
CCOC(=O)N1CCC(N2Cc3cccc(C(=O)NCc4ccc(C)cc4)c3C2=O)CC1 was tested, and the “activity change, negative = inhibition” value was inactive: 14.9%.
For C=CCn1c2ccccc2c2nnc(SCN3C(=O)c4ccccc4C3=O)nc21, the “activity change, negative = inhibition” value was inactive: 12.3%.
For COc1ccc(CNc2ncc(-c3ccc(F)cc3)n2C)c2ccccc12, the Potency was inconclusive: 22.4 µM [inhibitor, full curve].
With CC(=NNC(=S)N1CC2CCC(CC2)C1)c1cnccn1 the Potency was inconclusive: 14.1 µM [inhibitor, full curve, poor fit].
CN(c1ccc(O)cc1)c1nc(-c2cccnc2)cs1 was tested, and the Potency was inconclusive: 31.6 µM [inhibitor, partial curve, poor fit].
O=C(CSc1nnc(-c2ccco2)c(-c2ccco2)n1)c1ccccc1 was tested, and the Potency was inconclusive: 44.7 µM [inhibitor, partial curve].
In the case of CN(CCCC(=O)O)c1ccc(N=Nc2ccc([N+](=O)[O-])cc2)cc1, the Potency is reported as active: 11.2 µM.
For Cc1cc(NC(=O)CSc2nc3ccsc3c(=O)n2Cc2ccccn2)n[nH]1, the “activity change, negative = inhibition” value was inactive: 18%.
O=C(O)Cn1ncc2ccccc2c1=O was tested, and the “activity change, negative = inhibition” value was inactive: 57.2%.
In the case of O=c1c2c([N+](=O)[O-])cc([N+](=O)[O-])cc2sn1-c1ccc(Br)cc1, the Potency is reported as active: 7.94 µM.
With CN(CC(=O)NCCc1ccccc1)S(=O)(=O)c1ccc(Br)s1 the “activity change, negative = inhibition” value was inactive: 27.2%.
For CCn1c(C)c(C)c2cc(C(=O)NCCc3cc(OC)ccc3OC)ccc21, the Potency was inconclusive: 39.8 µM [inhibitor, partial curve].
With Cc1ccc(S(=O)(=O)N2CCN(c3ccc([N+](=O)[O-])c(NCCN4CCOCC4)c3)CC2)cc1 the “activity change, negative = inhibition” value was inactive: -6.8%.
In the case of O=C(Nc1nnc(C2CCCCC2)s1)C1CCN(C(=O)c2ccco2)CC1, the “activity change, negative = inhibition” value is reported as inactive: 24.8%.
For Cc1ccc(C(C)C)cc1OCCCCN1CCCC1, the Potency was inconclusive: 79.4 µM [inhibitor, partial curve].
CCNC(=S)NNC(=O)c1cc(C2CC2)nc2ccccc12 was tested, and the “activity change, negative = inhibition” value was inactive: 20.8%.
O=C(c1ccc([N+](=O)[O-])cc1)N1CCN(c2ncccn2)CC1 was tested, and the “activity change, negative = inhibition” value was inactive: 7.83%.
With Cc1nc2c(o1)C(=O)c1ccccc1C2=Nc1ccccc1 the Potency was inconclusive: 2.51 µM [inhibitor, full curve].
With O=C(CCC(=O)N1CCN(c2ccccn2)CC1)c1cccs1 the “activity change, negative = inhibition” value was inactive: 21.2%.
With CC(C)Nc1nnc(SCC(=O)Nc2ccc3c(c2)C(=O)c2ccccc2C3=O)s1 the “activity change, negative = inhibition” value was inactive: 2.35%.
CC(=O)Nc1ccc2nc(SCCOc3ccccc3Cl)sc2c1 was tested, and the “activity change, negative = inhibition” value was inactive: 34.7%.
With O=C(CN1C(=O)NC2(CCOc3ccccc32)C1=O)c1ccc(F)cc1 (centres undefined) the “activity change, negative = inhibition” value was inactive: 32.4%.
For CCOc1ccc(CNC(=O)Nc2ccccc2)cc1, the “activity change, negative = inhibition” value was inactive: 6.97%.
For O=C(COc1ccc(Br)cc1)Nc1ccc(C(=O)OC2CCCCC2)cc1, the “activity change, negative = inhibition” value was inactive: 39.7%.
For C=C(C)CSc1nc2sc3c(c2c(=O)n1C1CCCCC1)CCN(C)C3, the “activity change, negative = inhibition” value was inactive: 17.2%.
With O=S(=O)(c1ccc2c(c1)OCCO2)N1CCN(CCc2ccccc2)CC1 the “activity change, negative = inhibition” value was inactive: -15.7%.
With Cc1ccccc1Nc1scc(-c2ccc(Cl)cc2)[n+]1-c1ccccc1C the Potency was inconclusive: 12.6 µM [inhibitor, full curve].
With COc1ccccc1-c1c(C)nn2c(N3CCN(c4ccc(F)cc4)CC3)cc(C)nc12 the “activity change, negative = inhibition” value was inactive: 13%.
With O=C(c1ccccc1)c1ccc(OCCCN2CCCCC2)cc1 the “activity change, negative = inhibition” value was inactive: -35.3%.
For CN(C)c1ccc2nc3c(=O)[nH]c(=O)nc-3n(CC(O)C(O)C(O)CO)c2c1 (centres undefined), the Potency was inconclusive: 28.2 µM [inhibitor, partial curve].
With CCN(CC)C(=O)C1CCN(Cc2ccc(OCc3ccccc3)cc2)CC1 the Potency was inconclusive: 17.8 µM [inhibitor, partial curve, poor fit].
With NNC(=O)CC1=NNC(=O)C1 the “activity change, negative = inhibition” value was inactive: 32.1%.
For CN(C(=O)CSc1nc(-c2ccccc2)c(-c2ccccc2)o1)C1CCS(=O)(=O)C1 (centres undefined), the Potency was inconclusive: 39.8 µM [inhibitor, full curve].
For C/C(=N\Nc1ccccc1)c1cccc(N)c1, the Potency was inconclusive: 89.1 µM [inhibitor, single point].
For COc1ccc(N2CCN(Cc3cc4c(cc3Br)OCCO4)CC2)cc1, the Potency was inconclusive: 50.1 µM [inhibitor, partial curve, poor fit].
In the case of COc1ccc(/C=N/Nc2nc(-c3ccc(C)cc3)c(NC(C)=O)s2)cc1OC, the Potency is reported as inconclusive: 79.4 µM [inhibitor, single point].
With CCN(c1cc(C)cc(C)c1)S(=O)(=O)c1nnc(NC(=O)c2ccccc2C)s1 the “activity change, negative = inhibition” value was inactive: 21.1%.
With Cc1c(Cl)cccc1Nc1ccccc1C(=O)O the “activity change, negative = inhibition” value was inactive: 16.9%.
For Cc1ccc(C(C)C)c(OCCCN2CC(C)OC(C)C2)c1 (centres undefined), the Potency was inconclusive: 89.1 µM [inhibitor, partial curve, poor fit].
In the case of Cc1cc(Nc2ccccc2)c2c([N+](=O)[O-])cc(C)c(C)c2n1, the Potency is reported as inconclusive: 15.8 µM [inhibitor, full curve].
CC1CCCCC1NC(=O)c1ccc(S(=O)(=O)NNC(=O)c2ccncc2)cc1 (centres undefined) was tested, and the “activity change, negative = inhibition” value was inactive: 26.8%.
CCCC(c1nnnn1Cc1ccc(OC)cc1)N1CCC(C(N)=O)CC1 (centres undefined) was tested, and the “activity change, negative = inhibition” value was inactive: 28.5%.
In the case of Cc1cc(=O)n(C)c(=O)n1CCCCCCN1CCCC1, the Potency is reported as inconclusive: 50.1 µM [inhibitor, partial curve].
CCCOc1ccc(/C=C2\SC(=S)N(CC3CCCO3)C2=O)cc1 (centres undefined) was tested, and the Potency was inconclusive: 3.55 µM [inhibitor, full curve].
With CCC(=O)c1ccc(OCC(O)CN2CC(C)OC(C)C2)cc1 (centres undefined) the Potency was inconclusive: 50.1 µM [inhibitor, partial curve, poor fit].
For N#Cc1c(-c2ccccc2)nc(SCc2nc(N)nc(N3CCCCC3)n2)[nH]c1=O, the Potency was inconclusive: 6.31 µM [inhibitor, single point].
COc1ccc(N/N=C(C)/C(=N/O)C(=O)Nc2ccccc2)cc1 was tested, and the Potency was inconclusive: 89.1 µM [inhibitor, single point].
In the case of Cc1nn(-c2ccccc2)c(N)c1N=Nc1ccc(Cl)cc1, the Potency is reported as inconclusive: 22.4 µM [inhibitor, full curve].
CCS(=O)(=O)Nc1cccc(C2=NN(S(=O)(=O)c3ccc(F)cc3)C(c3cccs3)C2)c1 (centres undefined) was tested, and the “activity change, negative = inhibition” value was inactive: 31.1%.
In the case of CC1(C)Oc2ccc3ccc(=O)oc3c2/C(=C/Nc2cccc(O)c2)C1=O, the Potency is reported as inconclusive: 35.5 µM [inhibitor, partial curve, poor fit].
CCc1ccc(C(=O)/C=C/c2ccc([N+](=O)[O-])o2)cc1 was tested, and the Potency was inconclusive: 22.4 µM [inhibitor, partial curve, poor fit].
With COc1cccc(/C=C2\SC(=S)N(N3C(=O)CCCC3=O)C2=O)c1 the Potency was inconclusive: 22.4 µM [inhibitor, full curve].
With Cc1cc2ncn(S(=O)(=O)c3ccc(S(=O)(=O)N4CCOCC4)cc3)c2cc1C the “activity change, negative = inhibition” value was inactive: 17.1%.
For C=COCCNC(=S)N1CCOCCOCCN(C(=S)NCCOC=C)CCOCC1, the “activity change, negative = inhibition” value was inactive: 37.3%.
COc1ccc(CCNC(=O)c2cc(-c3ccco3)nc3ccccc23)cc1 was tested, and the Potency was inconclusive: 50.1 µM [inhibitor, partial curve].
COc1ccc(C2=[N+]([O-])C(C)(C)C(c3ccccc3)=N2)cc1 was tested, and the Potency was inconclusive: 89.1 µM [inhibitor, single point].
CCOc1ccc(C(c2c(C)[nH]n(-c3ccccc3)c2=O)c2c(C)[nH]n(-c3ccccc3)c2=O)cc1OC was tested, and the Potency was inconclusive: 10 µM [inhibitor, full curve].
With COc1ccc(C/C(C)=N/NC(=O)c2ccc(Cl)cc2)cc1 the “activity change, negative = inhibition” value was inactive: 31.6%.
For Cc1ccc(CN2CCN(/N=C/c3ccc(C(F)(F)F)cc3)CC2)cc1, the Potency was inconclusive: 28.2 µM [inhibitor, single point].
O=C(N/N=C/C=C\c1ccco1)c1ccccn1 was tested, and the Potency was inconclusive: 70.8 µM [inhibitor, partial curve].
CCC/C(C(=O)NCCO)=C1/c2ccccc2C(=O)N1c1ccccc1 was tested, and the “activity change, negative = inhibition” value was inactive: 46.8%.
With C[C@@H]1CC=C[C@H]2[C@H]1C(=O)N(Cc1ccccc1)[C@H]2c1ccc(-c2ccc(N(C)C)cc2)cc1F the Potency was inconclusive: 12.6 µM [inhibitor, full curve, poor fit].
For COc1ccc2ccc3c(c2c1)N=C[C@]1(O3)N(C)c2ccccc2C1(C)C, the Potency was inconclusive: 4.47 µM [inhibitor, full curve, poor fit].

From PubChem BioAssay AID540317 (National Center for Advancing Translational Sciences (NCATS), 2011)
Note: nearly all actives have a fitted effect of over 70% in size.
Potency is the fitted concentration of half-maximal effect; tags give direction and shape of the fitted curve.
